# In PubChem BioAssay AID602233 (National Center for Advancing Translational Sciences (NCATS), 2012):
# About 170 (0.045%) of roughly 380,000 compounds were called active. The call rests on the fitted dose curve; in most records, active means well fitted inhibition curve with a large enough effect; inconclusive means small, poorly fitted or top-dose-only effect; inactive means no such curve, though single readings can be large or run the other way. Only a part is listed here, and it is no random draw.
# Molecular target: Phosphoglycerate kinase, glycosomal (Trypanosoma brucei brucei) (UniProt P07378)
# Experiment: qHTS Assay to Find Inhibitors of Phosphoglycerate Kinase; further: nearly all actives have a fitted effect of over 60% in size
# Settings: PGK/GAPDH coupled, Kinase-Glo luminescence, 60 min; series mostly up to 57.5 µM; activity change, negative = inhibition: at the top concentration
# Excerpt: Several species of the Trypanosomatidae family of parasitic protozoans cause a spectrum of diseases throughout the tropical and subtropical world. Sleeping sickness, caused by two subspecies of Trypanosoma brucei, is endemic to areas of sub-Saharan Africa, while Chagas disease, a manifestation of Trypanosoma cruzi infection, is prevalent throughout Central and South America. In addition, many species of Leishmania are responsible for a range of cutaneous and visceral diseases, causing ulcers, destructive lesions and kalaazar, a lethal infection of the viscera. Collectively, these organisms infect 30 million people worldwide (~500 million live in endemic areas), and account for ~130,000 deaths annually. Given their debilitating and prevalent nature, trypanosomatid parasites impose a heavy medical, economic and social burden on entire populations, primarily in the developing world. The problem is further exacerbated by the fact that existing treatments have progressed little in the past 50 years, and current drugs show high toxicity and poor efficacy. […] Blood-stream stages of T. brucei are entirely dependent on glycolysis as a source of ATP, and the tricarboxylic acid cycle and oxidative phosphorylation are both repressed. Glycolysis in axenically cultured T. cruzi, representing the intracellular pathogenic stage, is also essential for these parasites. […] Previous studies have shown that the glycolytic enzyme, phosphoglycerate kinase (PGK), is a viable target for drugs to kill these parasites. […] NIH Molecular Libraries Probe Production Network [MLPCN] NIH Chemical Genomics Center [NCGC] MLPCN Grant: R03 MH093212 PI Name: Malcolm Walkinshaw, University of Edinburgh
# 3ul of substrate/PGK buffer (columns 1,2,5-48) are dispensed into Greiner white solid bottom 1536-well assay plates; columns 3-4 receive only TEA buffer as 0x PGK controls. Compounds are then transferred via Kalypsys pin tool equipped with 1536-pin array (10nl slotted pins, V&P Scientific, San Diego, CA). Following addition of compound, 1ul of GAPDH (100nM final concentration, all columns) is added to initiate the reaction (this upstream coupling enzyme is necessary for in-well production of PGK substrate, 1,3-bisphosphoglycerate (1,3-BPG), which is unstable and not commercially available). The plates are then incubated at room temperature for 60 minutes. Kinase-Glo Plus reagent is added (2ul) and plates incubated for 10 minutes, before being transferred to a ViewLux high-throughput CCD imager (PerkinElmer) wherein single end-point measurements of luminescence are acquired using a clear filter. All reagents are diluted in an assay buffer consisting of 100mM TEA (pH 7.6), 5mM MgCl2 and 0.01% Tween-20.
# On the % scale 0 is the no-effect control and ±100 the full control effect; potency means the concentration at half of the fitted maximal effect.
SMILES,outcome,Potency,"activity change, negative = inhibition"
C[N+]1(C)C2CC[C@H]1CC(OC(=O)C(CO)c1ccccc1)C2 (some centres undefined),inactive,–,–
N/C(=N\N=C/c1ccc(-c2ccc(O)c(C(=O)O)c2)o1)N[N+](=O)[O-],–,active: 10 µM,–
C=Cc1ccc(Cn2c(C)c(CNCCc3cc(OC)ccc3OC)c(C(=O)O)c2C)cc1,–,–,inactive: 19.7%
COc1ccc(N2C(=O)NC(=O)/C(=C\c3ccc([N+](=O)[O-])s3)C2=O)cc1,–,–,inactive: -14.9%
CN(C)[C@@H]1C(=O)C(C(N)=O)=C(O)[C@@]2(O)C(=O)C3=C(O)c4c(O)cccc4[C@@](C)(O)C3[C@H](O)C12 (some centres undefined),–,inactive,–
CCOc1ccc(C2SCC(=O)Nc3c2c(C)nn3C2CCOC(C)(C)C2)cc1 (centres undefined),–,–,inactive: 19.1%
C[N+]1(C)C2CCC1CC(OC(=O)C(CO)c1ccccc1)C2 (centres undefined),–,–,inactive: -7.21%
CN(C)c1ccc(/C=C/c2cc[n+](C)c3ccccc23)cc1,–,–,inactive: -15.2%
COc1ccc(OC)c(-n2c(O)c(C=Nc3c(C)n(C)n(-c4ccccc4)c3=O)c(=O)[nH]c2=S)c1,–,–,inactive: 23.4%
COc1ccc(N2C(=O)/C(=C/c3ccco3)C(=O)NC2=S)cc1,–,active: 12.6 µM,–
CCC(C)/C=C(C)/C=C/C1=CC2=C(Cl)C(=O)C(C)(OC(C)=O)C(=O)C2=CO1 (centres undefined),–,–,inactive: -6.36%
COc1ccc(OC)c(N2C(=O)/C(=C/c3ccco3)C(=O)NC2=S)c1,–,active: 3.55 µM,–
COc1cc(/C=N/NC(=O)CN2CCCCC2)ccc1OCc1ccccc1,–,–,inactive: 20.5%
O=C(O)c1cccc2c1NC(C(=O)O)C1CC(Sc3ccccc3[N+](=O)[O-])C(Cl)C21 (centres undefined),–,active: 11.2 µM,–
O=C1NC(=O)N(c2ccccc2)C(=O)/C1=C\c1ccc([N+](=O)[O-])s1,–,–,inactive: -28.5%
C[N+]1(C)[C@@H]2CC[C@H]1CC(OC(=O)C(CO)c1ccccc1)C2 (some centres undefined),inactive,–,–
Cc1ccc(N2C(=O)NC(=O)/C(=C/c3ccoc3)C2=O)cc1,–,active: 11.2 µM,–
Cc1ccc(N2C(=O)NC(=O)/C(=C\c3ccoc3)C2=O)cc1,–,–,inactive: -14.6%
CN(C)C1C(=O)C(C(N)=O)=C(O)C2(O)C(=O)C3=C(O)c4c(O)cccc4C(C)(O)C3C(O)C12 (centres undefined),inactive,–,–
